Data taken from the RNAGym collection of RNA variant scans (doi:10.7554/elife.90254).
The source gives no read counts; variants with many changes may rest on few reads.

B1: LINE1-mini (parent)
chain: GGCAGAGCUCAACACAGCGUGGCAAAGUGGCUGUGGCUAGACUGCC

Variants of: B1
Experiment: self-cleavage, relative activity (ratio to wild type); higher = more cleavage; in vitro, sequencing; the parent is a self-cleaving ribozyme

With C10A A11G A14U A26G as the variant, how does the self-cleavage read?
The self-cleavage was 0.03.

With C3A A11G G22U U32G as the variant, how does the self-cleavage read?
The self-cleavage was 0.04.

Which self-cleavage does the source give for G2U A6U G7U U38A here?
Its self-cleavage is 0.05.

For C8G G21C C46U, which self-cleavage is on record?
The self-cleavage was 0.07.

With U38A A39G C42A as the variant, how does the self-cleavage read?
Its self-cleavage is 0.03.

Which self-cleavage does the source give for G7C A14C A24U G30C C31U here?
Its self-cleavage is 0.03.

For A6U G17C C18A U32G U34A, which self-cleavage is on record?
Its self-cleavage is 0.04.

Which self-cleavage does the source give for C3G G5U C10G G44C here?
Its self-cleavage is 0.06.

Which self-cleavage does the source give for A4U G19C G29A G40A C46A here?
The self-cleavage was 0.04.

With C13G G30C C37G U38A C45U as the variant, how does the self-cleavage read?
Its self-cleavage is 0.2.

With G17U G22C U43G as the variant, how does the self-cleavage read?
The self-cleavage was 0.02.

For C8A U9C C13A G29C, which self-cleavage is on record?
The self-cleavage was 0.08.

With G7C U28A A41U as the variant, how does the self-cleavage read?
The self-cleavage was 0.17.

For G5C C13G A25C C37G C45U, which self-cleavage is on record?
Its self-cleavage is 0.05.

For G27C U38C C46G, which self-cleavage is on record?
Its self-cleavage is 0.14.

With A16C G19A A26G C31A C37G as the variant, how does the self-cleavage read?
Its self-cleavage is 0.01.

Which self-cleavage does the source give for G1A G33C G35U U43A here?
Its self-cleavage is 0.06.

With G2A C18U G19A G22U A24G C45G as the variant, how does the self-cleavage read?
Its self-cleavage is 0.98.

For C10G C15A G30C, which self-cleavage is on record?
Its self-cleavage is 0.03.

Which self-cleavage does the source give for A11C C23U U32C here?
Its self-cleavage is 0.02.

With C13A G27A U28A G29U C31G as the variant, how does the self-cleavage read?
Its self-cleavage is 0.22.

For C3G G17U G35U C45U, which self-cleavage is on record?
The self-cleavage was 0.08.

For A11G G33C C42A, which self-cleavage is on record?
The self-cleavage was 0.01.

Which self-cleavage does the source give for C8G A11U G33C G36A U43C here?
The self-cleavage was 0.02.

Which self-cleavage does the source give for G2U G21C A39G here?
The self-cleavage was 0.04.

For C3G G5U A39U, which self-cleavage is on record?
Its self-cleavage is 0.14.

With C8G U9C C23U C31U as the variant, how does the self-cleavage read?
The self-cleavage was 0.

For A6C G21A U38G G40A, which self-cleavage is on record?
Its self-cleavage is 0.02.

Which self-cleavage does the source give for G2U C15A A16C G27U G29U C31A here?
Its self-cleavage is 0.02.

Which self-cleavage does the source give for G2C C8U C13A A41U G44U here?
The self-cleavage was 0.03.

With G22U A26U A41G as the variant, how does the self-cleavage read?
The self-cleavage was 0.53.

For C15U G27U G40A C42A, which self-cleavage is on record?
Its self-cleavage is 0.02.

For G2U C3A G7C U9C A11C A12U A39C G40U, which self-cleavage is on record?
The self-cleavage was 0.01.

Which self-cleavage does the source give for A4G C18U U28A G30A here?
Its self-cleavage is 0.92.

Which self-cleavage does the source give for G19A A25U C45G here?
The self-cleavage was 0.1.

Which self-cleavage does the source give for C8U A14C C45U here?
The self-cleavage was 0.08.

Which self-cleavage does the source give for C3U A26U G40U here?
Its self-cleavage is 0.02.

For A11C C13G C23G U38G, which self-cleavage is on record?
Its self-cleavage is 0.

Which self-cleavage does the source give for G22A U34A G36U here?
The self-cleavage was 0.02.

For G7U G33A U38C, which self-cleavage is on record?
Its self-cleavage is 0.09.

For A12G C18G C37A U38C, which self-cleavage is on record?
The self-cleavage was 0.

For G5A U9G A11C A41U, which self-cleavage is on record?
Its self-cleavage is 0.01.

With C13A A16G G21U as the variant, how does the self-cleavage read?
Its self-cleavage is 0.02.

Which self-cleavage does the source give for C3A G5A A25C C42U here?
Its self-cleavage is 0.34.

Which self-cleavage does the source give for A24C G40C C42U G44U C45U here?
The self-cleavage was 0.06.

Which self-cleavage does the source give for C3U G27U C42U here?
Its self-cleavage is 0.03.

For A4C A11G A26U U28G A41C C46G, which self-cleavage is on record?
The self-cleavage was 0.02.

For G5U A24U C46A, which self-cleavage is on record?
Its self-cleavage is 0.04.

Which self-cleavage does the source give for C3G A16G G33U here?
The self-cleavage was 0.05.

For A25U U34G C46A, which self-cleavage is on record?
Its self-cleavage is 0.11.

For G17U G27A A41U, which self-cleavage is on record?
Its self-cleavage is 0.08.

With G5C A12U U34A A41C C42G as the variant, how does the self-cleavage read?
Its self-cleavage is 0.02.

With G5A G19U C42A as the variant, how does the self-cleavage read?
The self-cleavage was 0.04.

For A16G C18A G27C G36C, which self-cleavage is on record?
Its self-cleavage is 0.02.

For C18A C23U U28G, which self-cleavage is on record?
The self-cleavage was 0.02.

Which self-cleavage does the source give for G5C U32G C46A here?
The self-cleavage was 0.03.

For C18U G29C U32A G40U C42U C45G, which self-cleavage is on record?
Its self-cleavage is 0.02.

With G7C A11U G35A as the variant, how does the self-cleavage read?
Its self-cleavage is 0.02.

Which self-cleavage does the source give for A4G C10A C18A here?
The self-cleavage was 0.02.

Which self-cleavage does the source give for C15G C18U C46A here?
The self-cleavage was 0.23.

Which self-cleavage does the source give for U9C G19C G21A here?
Its self-cleavage is 0.01.

Which self-cleavage does the source give for A4C A11U A24U here?
Its self-cleavage is 0.03.

Which self-cleavage does the source give for A11U A16U A25C U38C G44A here?
Its self-cleavage is 0.

Which self-cleavage does the source give for A6C G19U U20G A25C U43A here?
The self-cleavage was 0.11.

With A16C U20G A25U as the variant, how does the self-cleavage read?
Its self-cleavage is 0.18.

With C37U G40U C46U as the variant, how does the self-cleavage read?
The self-cleavage was 0.02.

Which self-cleavage does the source give for G1U C8A A26U C37U A41C here?
Its self-cleavage is 0.08.

Which self-cleavage does the source give for C23U C45G C46A here?
Its self-cleavage is 0.42.

For G1A A4G G5A U9A A25C, which self-cleavage is on record?
The self-cleavage was 0.68.

For G2U C15A U32G, which self-cleavage is on record?
The self-cleavage was 0.03.

With G7U C8A G29U G33A C37G as the variant, how does the self-cleavage read?
The self-cleavage was 0.13.

For A11C G19A G21A A26U C46U, which self-cleavage is on record?
The self-cleavage was 0.04.

Which self-cleavage does the source give for C3G A6U C8G A16U G22A G30U here?
Its self-cleavage is 0.01.

Which self-cleavage does the source give for C18G G19U C31A C46A here?
Its self-cleavage is 0.09.

Which self-cleavage does the source give for G1A A12G C23U A26C here?
Its self-cleavage is 0.01.

With C3U A11C G21A G29U C31U as the variant, how does the self-cleavage read?
The self-cleavage was 0.02.

For A11U A26G A39U, which self-cleavage is on record?
Its self-cleavage is 0.01.

Which self-cleavage does the source give for G5A A14U C15U here?
Its self-cleavage is 0.13.

With C3U C15G A16U as the variant, how does the self-cleavage read?
Its self-cleavage is 0.01.

For C10G C13A G40C, which self-cleavage is on record?
Its self-cleavage is 0.03.

With C8A G27U G44C as the variant, how does the self-cleavage read?
The self-cleavage was 0.09.

Which self-cleavage does the source give for G7A A24C U32C G44A here?
Its self-cleavage is 0.07.

Which self-cleavage does the source give for A6C C15G C42A here?
The self-cleavage was 0.
